Where “and” joins values, the source holds several entries; their conditions need not be identical. Identical values can stand only once. The whole screen tested about 400,000 compounds, of which about 2,200 (0.55%) were called active. This list was built around the results that the source calls inconclusive (neither active nor inactive); the mix of calls is not that of the screen. Calls follow the shape of the dose curve; as a rule, active = well fitted inhibition curve with a large enough effect; inconclusive = small, poorly fitted or top-dose-only effect, or another doubt; inactive = no such curve, though single readings can be large or run the other way. A potency beside an inconclusive call is a rough fit, not a confirmed value.
target: DNA polymerase kappa (Homo sapiens) (UniProt Q9UBT6); assay: qHTS for Inhibitors of Polymerase Kappa; conditions: purified Pol kappa, fluorescent DNA synthesis assay, 10 min; series mostly up to 107 µM
Procedure, shortened: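 Fluorescent qHTS in 1536-well format: enzyme (10 nM) and compound sat 15 min at room temperature before 50 nM substrate (final) was added. Signal taken at 0 and 10 min; no-enzyme buffer wells were negative controls.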
Potency is read from the fitted curve at half-maximal effect; tags tell the direction and shape of the fitted curve.

Chain of UniProt Q9UBT6 (Q9UBT6 whole entry, looked up): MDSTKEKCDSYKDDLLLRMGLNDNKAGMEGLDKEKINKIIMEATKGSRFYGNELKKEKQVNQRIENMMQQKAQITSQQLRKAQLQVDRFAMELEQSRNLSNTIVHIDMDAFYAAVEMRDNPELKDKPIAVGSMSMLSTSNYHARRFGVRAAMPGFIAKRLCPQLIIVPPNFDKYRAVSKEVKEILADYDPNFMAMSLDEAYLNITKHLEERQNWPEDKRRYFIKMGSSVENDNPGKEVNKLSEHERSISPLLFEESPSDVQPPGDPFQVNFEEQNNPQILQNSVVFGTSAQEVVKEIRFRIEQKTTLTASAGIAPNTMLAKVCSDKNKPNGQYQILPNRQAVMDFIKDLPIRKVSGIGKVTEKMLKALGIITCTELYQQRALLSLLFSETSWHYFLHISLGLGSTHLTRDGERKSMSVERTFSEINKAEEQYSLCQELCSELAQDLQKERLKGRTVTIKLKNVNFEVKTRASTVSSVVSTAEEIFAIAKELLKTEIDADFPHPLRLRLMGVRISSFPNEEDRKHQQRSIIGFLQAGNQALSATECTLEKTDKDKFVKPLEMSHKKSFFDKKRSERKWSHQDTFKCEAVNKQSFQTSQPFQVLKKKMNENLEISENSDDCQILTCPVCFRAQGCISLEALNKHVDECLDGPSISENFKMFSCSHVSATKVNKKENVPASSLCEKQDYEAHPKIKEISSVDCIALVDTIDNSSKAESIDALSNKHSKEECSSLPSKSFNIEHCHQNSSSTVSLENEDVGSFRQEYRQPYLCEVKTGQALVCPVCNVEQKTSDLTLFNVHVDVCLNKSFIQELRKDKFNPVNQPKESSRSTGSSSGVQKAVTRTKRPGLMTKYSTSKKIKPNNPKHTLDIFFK

| Structure (SMILES) | Potency |
| --- | --- |
| COc1ccc(-c2nc(CSc3nncn4c3cc3occc34)c(C)o2)cc1 | inconclusive: 89.1 µM [inhibitor, single point] |
| CCOc1ccc(OCC(=O)Nc2ccc(S(=O)(=O)Nc3cc(C)nc(C)n3)cc2)cc1 | inactive |
| O=c1oc2cc(O)ccc2c2oc3cc(O)ccc3c12 | inconclusive: 63.1 µM [inhibitor, partial curve, poor fit] and inconclusive: 89.1 µM [inhibitor, partial curve, poor fit] |
| Fc1ccc(Nc2ncnc3ccc(-c4ccoc4)cc23)cc1 | inconclusive: 28.2 µM [inhibitor, single point] |
| O=C1Nc2cc3c(cc2C1=O)sc1ccccc13 | inconclusive: 100 µM [inhibitor, single point] |
| O=C(COC(=O)c1ccc(S(=O)(=O)N2CCCCC2)cc1)NCc1ccco1 | inconclusive: 100 µM [inhibitor, single point] |
| O=c1[nH]nc(-c2ccccc2)cc1-c1ccccc1 | inactive |
| O=C(NCc1ccco1)c1c(F)c(F)c(F)c(C(=O)NCc2ccco2)c1F | inconclusive: 89.1 µM [inhibitor, partial curve, poor fit] |
| CCc1c(C)[nH]n(-c2ccc(Oc3ccccc3)c(S(=O)(=O)O)c2)c1=O | active: 35.5 µM |
| Cc1ccc(C(=O)OCC(=O)NCc2ccco2)s1 | active: 79.4 µM |
| CCc1nnc(NS(=O)(=O)c2ccc(NC(=S)NC(=O)/C=C/c3ccc(OC)cc3)cc2)s1 | inconclusive: 25.1 µM [inhibitor, single point] |
| O=C(c1cccc(N2C(=O)C3C4C=CC(C4)C3C2=O)c1)N1CCCCCC1 (stereo not drawn) | inactive |
| CCc1ccc(NC(=O)CN2C(=O)CCSc3ccccc32)cc1 | inactive |
| NS(=O)(=O)c1ccc(-c2ccc(/C=N/NC(=O)c3ccccc3O)o2)cc1 | inconclusive: 79.4 µM [inhibitor, partial curve, poor fit] |
| CC(Oc1ccc2c(-c3ccccc3)cc(=O)oc2c1)C(=O)NC(Cc1c[nH]c2ccc(O)cc12)C(=O)O (stereo not drawn) | inconclusive: 56.2 µM [inhibitor, partial curve, poor fit] |
| COCCCn1c(Cc2csc(Nc3cccc(Cl)c3)n2)nnc1SCC(=O)OC | active: 39.8 µM |
| O=S(=O)(c1ccc2nc(-c3ccco3)c(-c3ccco3)nc2c1)N1CCOCC1 | inconclusive: 79.4 µM [inhibitor, single point] |
| N=c1oc2ccc3ccccc3c2cc1C(N)=S | inconclusive: 100 µM [inhibitor, partial curve, poor fit] |
| COc1ccccc1N(CC(=O)N1CCC(C(N)=O)CC1)S(=O)(=O)c1ccccc1 | inconclusive: 89.1 µM [inhibitor, single point] |
| CN(CC(=O)Nc1ccc(F)c(F)c1F)C(=O)/C=C/c1ccco1 | inactive |
| COC(=O)C1=C(C)N(CCCC(=O)O)C(=O)NC1c1cc2c(cc1[N+](=O)[O-])OCO2 (stereo not drawn) | active: 44.7 µM |
| COc1ccc(-c2cc(=O)c3ccc(O)cc3o2)cc1 | inconclusive: 37.7 µM [inhibitor, single point] |

| Structure (SMILES) | Potency |
| --- | --- |
| CC(=O)Nc1ccc(NC(=O)c2cc3sccc3n2Cc2ccc(F)cc2)cc1 | inconclusive: 89.1 µM [inhibitor, single point] |
| O=C(NCCCO)c1ccc2nc(-c3ccco3)c(-c3ccco3)nc2c1 | active: 31.6 µM and active: 28.2 µM |
| O=C1OC(c2cccs2)=N/C1=C/c1ccc(-c2cccc(C(=O)O)c2)o1 | active: 44.7 µM |
| O=C1c2nc3cc(-c4ccco4)[nH]n3c(=O)c2CN1C1CCCCC1 | inconclusive: 89.1 µM [inhibitor, single point] |
| CCn1c(C)nc2cc(C(=O)N/N=C/c3cccc(OC)c3O)ccc21 | inconclusive: 89.1 µM [inhibitor, partial curve, poor fit] |
| COc1cc2cc3c4c(cc(OC)c(OC)c4c2cc1OC)CCN3C | inconclusive: 1.78 µM [inhibitor, partial curve] |
| Cn1cccc1CC(=O)N/N=C/C=C/c1ccco1 | active: 35.5 µM |
| CNC(=S)N/N=C(\C)c1ccc2c(c1)OCCO2 | inactive |
| CCN(CC)C(=O)CSc1nc2c(sc(=S)n2-c2ccccc2)c(=O)n1Cc1ccco1 | inconclusive: 100 µM [inhibitor, single point] |
| COC(=O)C1=C(C)N(Cc2ccco2)C(=O)C1 | active: 44.7 µM |
| Cc1ccc(C(C)C)c(OCCCN2C(=O)NC(C)(C)C2=O)c1 | inactive |
| Cc1ccc(C)c(Cn2c(=O)n(CCCCC(=O)NCc3ccccc3Cl)c(=O)c3ccccc32)c1 | inactive |
| COc1ccc(-c2[nH]c(-c3cc(OC)c4c(c3)OCO4)nc2-c2ccccc2)cc1 | inconclusive: 89.1 µM [inhibitor, partial curve, poor fit] |
| Cc1oc(C)c2c(=O)cc(-c3ccc4c(c3)OCO4)cc(OC(=O)c3ccccc3Br)c12 | inconclusive: 89.1 µM [inhibitor, single point] |
| Cc1[nH]c2ccccc2c1/C=N/Nc1cccc(C(=O)O)c1 | inconclusive: 89.1 µM [inhibitor, single point] |
| CCOC(=O)NNc1ccc2nonc2c1[N+](=O)[O-] | inconclusive: 50.1 µM [inhibitor, partial curve, poor fit] |
| CCN(CCCCN1C(=O)c2ccccc2C1=O)c1ccc2c(c1)C(=O)N(C)C2=O | inconclusive: 79.4 µM [inhibitor, partial curve, poor fit] |
| Cc1[nH]c2ccccc2c1C(=O)CN(C)c1ccccc1 | inconclusive: 89.1 µM [inhibitor, single point] |
| CCc1cc(=O)oc2cc(OCc3ccc(C(=O)O)o3)ccc12 | inactive |
| COc1ccc(NC(=O)c2cc(-c3ccco3)nc3ccccc23)cc1S(=O)(=O)N1CCOCC1 | active: 39.8 µM |
| CC1=C(C(=O)OCC2CCCCC2)C(c2ccccc2F)CC(=O)N1 (stereo not drawn) | inconclusive: 100 µM [inhibitor, single point] |
